According to the RNAGym collection of RNA variant scans (doi:10.1093/nar/gkz1192):
Read counts are not given, so values of variants with three or more changes are uncertain.

B1: CPEB3 Ribozyme (parent)
chain: UAACAGGGGGCCACAGCAGAAGCGUUCACGUCGCAGCCCCUGUCAGAUUCUGGUGAAUCUGCGAAUUCUGCUGUAUAUCUC

Variants of: B1
Assay: self-cleavage, relative activity (ratio to wild type); higher = more cleavage; in vitro, sequencing
In short: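 CPEB3 self-cleaving ribozyme mutant libraries were made by rounds of error-prone PCR, barcoded, and transcribed in vitro with T7 RNA polymerase for 5 hours at 37°C. Cleavage occurred during transcription and a 15 min DNase I step before EDTA stop. RNAs were reverse transcribed with template switching and Illumina-sequenced, with DNA sequencing mapping barcodes to variants. Relative activity is the variant's cleaved/total read fraction divided by wild type's (minimum 5 reads), averaged across three batches.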

Row | Variant | self-cleavage
1 | A2G A3G A15G G53A U67G U78C | 0.39
2 | A2G A3G A15U A20G C32U U48C U76G | 0.08
3 | A2G A3G A15U G33A U41A | 0.34
4 | A2G A3G A18U | 0.41
5 | A2G A3G A18U U25C | 0.2
6 | A2G A3G A28G | 0.8
7 | A2G A3G A28G U41C | 0.82
8 | A2G A3G A28G U67C | 0.39
9 | A2G A3G A35G | 1.14
10 | A2G A3G C11U A13U U25C U41C | 0.06
11 | A2G A3G C11U G46A A57G U60C | 0.1
12 | A2G A3G C12U A15U U31C U51C | 0.14
13 | A2G A3G C62A | 0.39
14 | A2G A3G G8A C11A U25A U74C | 0.07
15 | A2G A3G G16A | 0.75
16 | A2G A3G G36A U80C | 0.75
17 | A2G A3G U25C C40G U41A U74A | 0.17
18 | A2G A3G U48C U60C G63U | 0.22
19 | A2G A3G U49A U58A A75G | 0.45
20 | A2G A3U A45G | 1.01
21 | A2G A3U C11G A18U A21G | 0.56
22 | A2G A3U C27A C38A G42A | 0.23
23 | A2G A3U G10A A57C U58A | 0.03
24 | A2G A3U G55A A64G | 0.5

Row | Variant | self-cleavage
25 | A2G A3U U26A U31C U49C A56G | 0.92
26 | A2G A5C A13C A35G | 1.19
27 | A2G A5C A15G A21G A45U | 0.64
28 | A2G A5C A15U U66C G70A U72C | 0.34
29 | A2G A5C A21G | 0.6
30 | A2G A5G A13G A35U U78C | 0.38
31 | A2G A5G A15U U66C | 0.37
32 | A2G A5G A15U U78G | 0.55
33 | A2G A5G A21G G52U | 0.79
34 | A2G A5G A21G U76A | 0.15
35 | A2G A5G A28G A35G U67A | 0.17
36 | A2G A5G A28U U43C U66C A77U | 0.07
37 | A2G A5G A35G | 1.04
38 | A2G A5G A35G U54C U60C U78A | 0.54
39 | A2G A5G A45C A64G U69C | 0.19
40 | A2G A5G C11U A28G U66C C79G | 0.24
41 | A2G A5G C12U U54C C71A | 0.17
42 | A2G A5G C29U U54C C59A U76C | 0.05
43 | A2G A5G C34G U78C U80C | 0.13
44 | A2G A5G C40U U51C | 0.07
45 | A2G A5G C40U U54C | 0.03
46 | A2G A5G G10A A57G U67C | 0.07
47 | A2G A5G U25C | 0.47
48 | A2G A5G U25C A45G | 0.71

Row | Variant | self-cleavage
49 | A2G A5G U26C C29U A56G | 0.43
50 | A2G A5G U43C U48A G63U | 0.11
51 | A2G A5G U43C U48C | 0.52
52 | A2G A5G U54C U58G U60C G70A | 0.09
53 | A2G A5G U54C U60C | 0.11
54 | A2G A5U A13G C37G U48C | 0.03
55 | A2G A5U A15G U25A U60C | 0.05
56 | A2G A5U A15G U41C G55C A56G | 0.49
57 | A2G A5U A15G U43C A45G A47U C79U | 0.17
58 | A2G A5U A28G U51A U54C A77G | 0.25
59 | A2G A5U A28U U43C A57G U76A | 0.29
60 | A2G A5U A35G A56G U60A U78C | 0.47
61 | A2G A5U A35G A56G U72A U78C | 0.94
62 | A2G A5U A35G U48C C50U | 0.12
63 | A2G A5U G8A A45G | 0.45
64 | A2G A5U G8A C38U U54G A64G U66A | 0.05
65 | A2G A5U G9A A15U A21G A28C A75U | 0.05
66 | A2G A5U G9U U25C C29U U41C | 0.07
67 | A2G A5U G10A U51C U76C | 0.06
68 | A2G A5U G10U A56G U58A U60C | 0.03
69 | A2G A5U G19U A57C | 0.1
70 | A2G A5U U25C A45G U49C G55U | 0.33
71 | A2G A5U U25C U26A U41C U76A | 0.66
72 | A2G A5U U31C U54A A57G U60C U74C | 0.38

Row | Variant | self-cleavage
73 | A2G A13C A20G U26C A47G A64G U80C | 0.35
74 | A2G A13G A15G U67C G70U | 0.04
75 | A2G A13G A35U A45U A56G | 0.11
76 | A2G A13G A47G A56U | 0.08
77 | A2G A13G A65G | 0.13
78 | A2G A13G C17A C27U C29U A75G U78C | 0.06
79 | A2G A13G C38U A64G | 0.5
80 | A2G A13G C59A | 0.24
81 | A2G A13G C62U | 0.75
82 | A2G A13G G63A A64C G70U U72C | 0.12
83 | A2G A13G U51A U54G A64U U72C | 0.08
84 | A2G A13U A28G C38G | 0.08
85 | A2G A13U A35G U54C U72G | 0.58
86 | A2G A13U A45U U67C | 0.21
87 | A2G A13U A47G C62U U72A | 0.1
88 | A2G A13U C44U U60A A65G U66C U72A | 0.07
89 | A2G A13U G70C | 0.16
90 | A2G A13U U41A U49A U80C | 0.31
91 | A2G A13U U43G C44U A45G A64G | 0.07
92 | A2G A13U U49C U66C U78A | 0.04
93 | A2G A13U U51C U66C | 0.22
94 | A2G A15C A21G U72C U78C | 0.22
95 | A2G A15C G16U U26A U31A | 0.13
96 | A2G A15G A18G A35U A57G | 0

Row | Variant | self-cleavage
97 | A2G A15G A20G U49C | 0.33
98 | A2G A15G A21G A57G U66C A77G | 0.52
99 | A2G A15G A35G U54C U69A | 0.52
100 | A2G A15G A47U U60C G61A | 0.11
101 | A2G A15G A65G U66C A75G | 0.21
102 | A2G A15G G22A A35G A57G | 0.12
103 | A2G A15G U25A U41C G42U G55U A64G | 0.04
104 | A2G A15G U26A A56G | 0.36
105 | A2G A15G U26C G30A U41C U60A U67C | 0.07
106 | A2G A15G U31A U43A | 0.62
107 | A2G A15G U41C U51G U69A | 0.46
108 | A2G A15U A18G U60C | 0.04
109 | A2G A15U A35U U41C U43C | 0.08
110 | A2G A15U A47G U49A U76C | 0.08
111 | A2G A15U A75U U78A | 0.47
112 | A2G A15U C17A A75U | 0.49
113 | A2G A15U U25C C29A U74C | 0.07
114 | A2G A15U U26C U49C U72A | 0.13
115 | A2G A15U U26C U51C U69C | 0.28
116 | A2G A15U U31C U41C | 0.43
117 | A2G A15U U31C U51C A64G | 0.08
118 | A2G A15U U43C C81U | 0.3
119 | A2G A15U U49A | 0.08
120 | A2G A18G A20U U60A | 0.19

Row | Variant | self-cleavage
121 | A2G A18G A28G C29U | 0.38
122 | A2G A18G C27U U78A | 0.09
123 | A2G A18G C44U U49A U69A | 0.25
124 | A2G A18G U41C A57G U58C | 0.15
125 | A2G A18G U51A A56G C62U U76C | 0.21
126 | A2G A18G U78A | 0.69
127 | A2G A18U A28U U76G | 0.61
128 | A2G A18U A35U U41A U43C | 0.46
129 | A2G A18U U25C A35U U41C G63C A64G | 0.08
130 | A2G A18U U31A A35U U51C U58G U66C | 0.05
131 | A2G A18U U41A G55U | 0.1
132 | A2G A18U U41A U43C A45G | 0.41
133 | A2G A18U U43C | 0.05
134 | A2G A18U U43C U60C U72A | 0.05
135 | A2G A18U U54A | 0.57
136 | A2G A18U U58C | 0.18
137 | A2G A20C A35U G42U U58A U69C U80C | 0.05
138 | A2G A20C C29U U31C U48C U69C | 0.05
139 | A2G A20G U25A A47G A56G C62U G73U | 0.03
140 | A2G A20G U25C U43C G63A U80A | 0.25
141 | A2G A20G U54G | 0.62
142 | A2G A20G U67C | 0.66
143 | A2G A20U A21G C62U | 0.22
144 | A2G A20U U54A | 0.4

Row | Variant | self-cleavage
145 | A2G A20U U60C U76C | 0.19
146 | A2G A21G A28U | 0.42
147 | A2G A21G A28U A64G | 0.35
148 | A2G A21G A45U | 0.24
149 | A2G A21G A64G A77G | 0.23
150 | A2G A21G A64G U67C U72C | 0.09
151 | A2G A21G U26A G33A U51C U67G U69A | 0.1
152 | A2G A21G U26C A28G A64G | 0.32
153 | A2G A21G U26C A47G U48C | 0.34
154 | A2G A21G U31A C34U | 0.07
155 | A2G A21U G22U U41A U67C | 0.05
156 | A2G A21U U31C C34G U41C A65G C68U | 0.02
157 | A2G A28C A75U | 0.46
158 | A2G A28G U48C A56G U66C | 0.19
159 | A2G A28U G33A U51C U78A | 0.24
160 | A2G A28U U41A U58C U80A | 0.04
161 | A2G A28U U41C U48C | 0.08
162 | A2G A28U U51C U58A | 0.06
163 | A2G A28U U76A | 0.38
164 | A2G A35C U66C | 0.35
165 | A2G A35G G42A A56G | 0.26
166 | A2G A35G U41A A47U U48A U49A U67C | 0.25
167 | A2G A35G U41C | 1.22
